In the supplement of paper PMC10369915:
The other results are listed elsewhere or left out. No stated cut-off is given here; in the data, active = 3.2 or more and inactive = the rest. Only a few entries rise above the background.

Key:
Test in all cases: enrichment score (SH2-bound / input frequency) (ratio); bacterial display of known human phosphotyrosine sites (pTyr-Var adds point mutants) read by sequencing; higher = stronger binding; tyrosines were phosphorylated by kinases first
Settings in all cases: peptide library: Human pTyr
[1] = target: SHP2 C-SH2 domain E139D
[2] = target: SHP2 C-SH2 domain wild-type
[3] = target: SHP2 N-SH2 domain L43F
[4] = target: SHP2 N-SH2 domain T42A
[5] = target: SHP2 N-SH2 domain T52S
[6] = target: SHP2 N-SH2 domain wild-type

Measured: enrichment score
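Further: displayed peptides selected on beads carrying the immobilized SH2 domain, with library peptides lacking any tyrosine serving as negative controls.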

B1: CAMP1_HUMAN_1537 (peptide)
chain: YPDTEEIYKLTGTGP
inactive: [1] 0.867 | [2] 0.414 | [3] 0.593 | [4] 0.538 | [5] 0.636 | [6] 0.787

B2: CAP1_HUMAN_31 (peptide)
chain: TSDMHRGYADSPSKA
inactive: [1] 0.755 | [2] 0.464 | [3] 0.698 | [4] 0.771 | [5] 0.791 | [6] 0.638

B3: CAT_HUMAN_231_YA (peptide)
chain: NANGEAVYCKFHAKT
inactive: [1] 1.22 | [2] 0.947 | [3] 1.06 | [4] 0.922 | [5] 1.15 | [6] 1.13

B4: CALM_HUMAN_100 (peptide)
chain: FDKDGNGYISAAELR
inactive: [1] 0.793 | [2] 1.3 | [3] 0.506 | [4] 0.742 | [5] 0.739 | [6] 0.746

B5: CD300LF_HUMAN_236 (peptide)
chain: VDQVEVEYVTMASLP
inactive: [1] 0.85 | [2] 0.849 | [3] 0.812 | [4] 1.32 | [5] 0.743 | [6] 0.817

B6: CD28_HUMAN_209_YA (peptide)
chain: TRKHAQPYAPPRDFA
inactive: [1] 1.85 | [2] 2.32 | [3] 1.86 | [4] 2.14 | [5] 2.5 | [6] 2.61

B7: ABL1_HUMAN_413 (peptide)
chain: TAPESLAYNKFSIKS
inactive: [1] 1.13 | [2] 0.926 | [3] 1.02 | [4] 0.928 | [5] 1.02 | [6] 1.07

B8: CBLB_HUMAN_889 (peptide)
chain: TNRTSQDYDQLPSCS
inactive: [1] 1.1 | [2] 0.609 | [3] 0.631 | [4] 0.927 | [5] 0.956 | [6] 0.759

B9: CD11A_HUMAN_582_YA (peptide)
chain: AGSPLKAYTPVVVTQ
inactive: [1] 1.03 | [2] 0.761 | [3] 0.817 | [4] 1.49 | [5] 0.903 | [6] 0.843

B10: CD3Z_HUMAN_83 (peptide)
chain: NLGRREEYDVLDKRR
inactive: [1] 0.865 | [2] 0.744 | [3] 0.887 | [4] 0.917 | [5] 0.717 | [6] 0.917

B11: CAH9_HUMAN_449 (peptide)
chain: GTKGGVSYRPAEVAE
inactive: [1] 0.889 | [2] 0.62 | [3] 0.665 | [4] 0.826 | [5] 0.832 | [6] 0.941

B12: CADH1_HUMAN_754_YA (peptide)
chain: DTRDNVAYADEEGGG
inactive: [1] 1.15 | [2] 0.974 | [3] 0.959 | [4] 0.933 | [5] 0.842 | [6] 1.06

B13: CD226_HUMAN_322 (peptide)
chain: DDTREDIYVNYPTFS
inactive: [1] 0.924 | [2] 0.832 | [3] 0.936 | [4] 0.807 | [5] 0.8 | [6] 1.18

B14: CASQ2_HUMAN_282 (peptide)
chain: EKSDPDGYEFLEILK
inactive: [1] 1.12 | [2] 0.851 | [3] 0.881 | [4] 0.871 | [5] 0.822 | [6] 0.912

B15: CD226_HUMAN_322_YA (peptide)
chain: DDTREDIYVNAPTFS
inactive: [1] 0.651 | [2] 0.668 | [3] 0.706 | [4] 0.545 | [5] 0.603 | [6] 0.622

B16: CALB2_HUMAN_214_YA (peptide)
chain: ADKDRSGYIDEHELD
inactive: [1] 0.944 | [2] 1.2 | [3] 1.02 | [4] 1.21 | [5] 1.17 | [6] 1.14

B17: CAV2_HUMAN_27 (peptide)
chain: SHHSGLEYADPEKFA
inactive: [1] 0.678 | [2] 0.723 | [3] 0.687 | [4] 0.719 | [5] 1.06 | [6] 0.785

B18: ABL2_HUMAN_139 (peptide)
chain: EKLRVLGYNQNGEWS
inactive: [1] 0.825 | [2] 0.545 | [3] 0.607 | [4] 0.555 | [5] 0.748 | [6] 0.816

B19: CDC73_HUMAN_315 (peptide)
chain: KIDTMGTYHGMTLKS
inactive: [1] 0.893 | [2] 0.892 | [3] 0.797 | [4] 0.998 | [5] 0.819 | [6] 1.04

B20: CBPD_HUMAN_265 (peptide)
chain: GGSVVASYPFDDSPE
inactive: [1] 0.611 | [2] 0.543 | [3] 0.488 | [4] 0.552 | [5] 0.534 | [6] 0.548

B21: CALU_HUMAN_47 (peptide)
chain: NDAQSFDYDHDAFLG
inactive: [1] 0.673 | [2] 0.54 | [3] 0.695 | [4] 0.677 | [5] 0.73 | [6] 0.701

B22: CD19_HUMAN_500 (peptide)
chain: TSLGSQSYEDMRGIL
inactive: [1] 0.742 | [2] 0.468 | [3] 0.453 | [4] 0.531 | [5] 0.723 | [6] 0.414

B23: CD34_HUMAN_329_YA (peptide)
chain: ERLGEDPYATENGGG
inactive: [1] 0.734 | [2] 0.765 | [3] 0.829 | [4] 0.814 | [5] 0.743 | [6] 0.767

B24: CATIN_HUMAN_559_YA (peptide)
chain: DDADAGRYSPRLLTA
inactive: [1] 0.626 | [2] 0.369 | [3] 0.465 | [4] 0.477 | [5] 0.408 | [6] 0.518

B25: CASP8_HUMAN_380 (peptide)
chain: TDSEEQPYLEMDLSS
inactive: [1] 1.15 | [2] 0.838 | [3] 0.896 | [4] 0.981 | [5] 1.23 | [6] 1.43

B26: CAT_HUMAN_386_YA (peptide)
chain: ARARVANYQRDGPMC
inactive: [1] 0.714 | [2] 0.742 | [3] 0.719 | [4] 0.573 | [5] 0.659 | [6] 0.858

B27: CCR1_HUMAN_132 (peptide)
chain: ILLTIDRYLAIVHAV
inactive: [1] 2.87 | [2] 3.16 | [3] 2.68
active: [4] 3.22 | [5] 3.48 | [6] 3.83

B28: ABL1_HUMAN_139 (peptide)
chain: VSRNAAEYLLSSGIN
inactive: [1] 0.552 | [2] 0.537 | [3] 0.581 | [4] 0.496 | [5] 0.592 | [6] 0.682

B29: CDC73_HUMAN_290 (peptide)
chain: KQPIPAAYNRYDQER
inactive: [1] 1.18 | [2] 0.92 | [3] 1.01 | [4] 1.12 | [5] 1.15 | [6] 1.2

B30: CAV1_HUMAN_6 (peptide)
chain: GGMSGGKYVDSEGHL
inactive: [1] 0.804 | [2] 0.468 | [3] 0.563 | [4] 0.746 | [5] 0.701 | [6] 0.61

B31: CD3Z_HUMAN_123 (peptide)
chain: KDKMAEAYSEIGMKG
inactive: [1] 1.86 | [2] 0.858 | [3] 0.909 | [4] 0.855 | [5] 1.09 | [6] 1

B32: CD3Z_HUMAN_111 (peptide)
chain: KNPQEGLYNELQKDK
inactive: [1] 0.868 | [2] 0.793 | [3] 0.655 | [4] 0.831 | [5] 0.693 | [6] 0.869

B33: CBL_HUMAN_371 (peptide)
chain: TQEQYELYCEMGSTF
inactive: [1] 1.75 | [2] 1.77 | [3] 1.59 | [4] 1.4 | [5] 1.88 | [6] 1.77

B34: CD19_HUMAN_409 (peptide)
chain: EEEEGEGYEEPDSEE
inactive: [1] 1.03 | [2] 0.815 | [3] 0.719 | [4] 0.785 | [5] 0.662 | [6] 0.651

B35: CD5_HUMAN_487 (peptide)
chain: DNSSDSDYDLHGAQR
inactive: [1] 0.583 | [2] 0.42 | [3] 0.597 | [4] 0.532 | [5] 0.477 | [6] 0.593

B36: CDC37_HUMAN_298 (peptide)
chain: GLDPVEVYESLPEEL
inactive: [1] 1.28 | [2] 1.12 | [3] 1.34 | [4] 1.22 | [5] 1.23 | [6] 1.34
